Source: paper PMC6325244
Residue numbers refer to the chain shown, from its start. Results are given in words; binding and its absence hold for the method and conditions named. Binding seen in cells or lysates may run through a third protein. Some entries that bind do so weakly or less than the wild type. Tags and fused reporters may be left off the sequences shown.

Experiments:
Strep-FtsB (E. coli) = molecular target: T1, Strep-FtsB (E. coli) (UniProt P0A6S5); assay: pull-down; coexpression of Strep-FtsB, FtsL and FtsQ in E. coli, membranes solubilized with DDM, affinity copurification on StrepTrap, SDS-PAGE
T1 sequence: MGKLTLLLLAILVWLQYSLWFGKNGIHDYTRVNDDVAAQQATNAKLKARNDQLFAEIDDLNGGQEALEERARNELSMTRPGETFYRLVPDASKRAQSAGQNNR

His-FtsB (E. coli) [1] = molecular target: T2, His-FtsB (E. coli) (UniProt P0A6S5); assay: pull-down; FtsB and FtsL expressed without FtsQ and purified together; Coomassie gel shows both bands, immunoblot shows no FtsQ; details in the supplement
T2 sequence: T1 sequence

FtsB^D59H (E. coli) = molecular target: T3, FtsB^D59H (E. coli) (UniProt P0A6S5); assay: pull-down; coexpression from compatible Duet vectors in E. coli, complexes extracted from membranes with detergent, affinity copurification on a HisTrap/Ni column with one His-tagged protein as bait; eluate labeled with fluorescent ampicillin when PBPs were present, SDS-PAGE, fluorescence imaging, Coomassie staining, immunoblot
T3 sequence: T1 sequence with D59H

FtsB^E56A (E. coli) = molecular target: T4, FtsB^E56A (E. coli) (UniProt P0A6S5); assay: as above
T4 sequence: T1 sequence with E56A

FtsB^E56K (E. coli) = molecular target: T5, FtsB^E56K (E. coli) (UniProt P0A6S5); assay: as above
T5 sequence: T1 sequence with E56K

His-FtsB (E. coli) [2] = molecular target: T2, His-FtsB (E. coli); assay: as above

binding (Strep-FtsB (E. coli)): binds | binding (His-FtsB (E. coli) [1]): binds | binding (FtsB^D59H (E. coli)): binds | binding (FtsB^E56A (E. coli)): binds | binding (FtsB^E56K (E. coli)): binds | binding (His-FtsB (E. coli) [2]): binds
B1: FtsL (untagged) (protein, UniProt P0AEN4 1-121)
chain: MISRVTEALSKVKGSMGSHERHALPGVIGDDLLRFGKLPLCLFICIILTAVTVVTTAHHTRLLTAQREQLVLERDALDIEWRNLILEENALGDHSRVERIATEKLQMQHVDPSQENIVVQK
